Test results taken from the supplement of paper PMC11417369.
± gives the standard deviation of the averaged measurements. This is one part of the list.

System: PfAP2-EXP AP2 domain (GST-tagged)
Test: gcPBM binding intensity (ln(normalized median fluorescence intensity)); higher = stronger DNA binding
Procedure, shortened: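 DNA-binding domains from P. falciparum, fused to GST and produced in E. coli, were put on an Agilent 4 × 180k double-stranded probe array for 1 h in 1× PBS holding 1% milk, 0.2 mg/ml BSA, 0.5% salmon testes DNA and 0.03% Triton X-100. Probes were primer-extended, 36 bp long and drawn from intergenic genomic regions, with negative controls included. After Alexa488 anti-GST antibody detection and a 488 nm scan, binding intensity was set as the highest Masliner-normalised natural-log median intensity across replicate spots of either probe orientation.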

Row | Sequence | gcPBM binding intensity (ln)
1 | CTTTGTAGTATATTAACACACAACTGTTTATAATAT [CACACA_site6038] | 8.49 ± 0.42
2 | TATATACTCATGCGCACACACAAGTGGGAAATTTGG [CACACA_site5056] | 8.98 ± 0.38
3 | TTCTTTAAAAAATTCGATAAAAAAAAAAAAAGAAAA [CACACA_negctrl_site242] | 8.37 ± 0.45
4 | GGAAAGACAGTTCACAGTACCCAGGAAATCTACGGA [XGTACX_site1996] | 8.69 ± 0.52
5 | ATATACATATATATTGCATGCAGAGAGTATTTATAA [TGCATGCA_site646] | 10.085 ± 0.007
6 | ATATATATATATATTGTGCACAAAAAAAAATAAGCA | 10.1 ± 0.16
7 | ATATATTATAGGTACACACACATATAAGGGATTATA [CACACA_site6154] | 8.71 ± 0.39
8 | TTATTAAATATGTACACACGTACATTTTATAAATGA [CACACA_site2387] | 8.12 ± 0.3
9 | TATATATATATTTAGTGTACTTAAAAAAAATAATAA [XGTACX_site5454] | 9.375 ± 0.021
10 | TATTTTTTTTTCCATTGTACATTTTTGATATTTTTC [XGTACX_site744] | 8.84 ± 0.59
11 | ATAATAATAAAATATATATACAAAGGTGAAATTATA [TGCATGCA_negctrl_site197] | 8.79 ± 0.32
12 | AAGTAAAATAAGTATACACACATAAATATATATATA [CACACA_site685] | 9.61 ± 0.18
13 | TATAATAATACGTATTGTACTATTAGGTTAATTCGT [XGTACX_site264] | 8.34 ± 0.33
14 | TCTATAAAGGAATATACACACATATATATATATATA [CACACA_site410] | 10 ± 0.26
15 | ACTTGTAAGAAACACACACACACACCCATATATATA [CACACA_site796] | 8.79 ± 0.34
16 | TTTTCTTGTAAATTACGTACGAATGTGTAGAGAAAT [XGTACX_site1339] | 9.02 ± 0.42
17 | ATCCTCTTTACAATATGTACATAAATATATATTTAT [XGTACX_site8001] | 9.15 ± 0.33
18 | TATTTATTTATTTATTTATTTATTTATTTATATTTA [CACACA_negctrl_site398] | 8.41 ± 0.29
19 | TATATATTTTTATTATGTACATATTAACAATGTGTT [XGTACX_site879] | 8.49 ± 0.4
20 | TATATATATAAATACACACACATATATATATATATA [CACACA_site4867] | 10.2 ± 0.25
21 | TAAAATATAAAACACACACACATATATATATATATT [CACACA_site224] | 8.54 ± 0.43
22 | TTTGAGATAAAAGACTGTACTTAGAATGTATAAAAA [XGTACX_site203] | 8.53 ± 0.33

Row | Sequence | gcPBM binding intensity (ln)
23 | TTTAATTTTATATAGAGTACAAAAAAATAGAAAGAT [XGTACX_site3870] | 8.91 ± 0.48
24 | ATATATATATATATATGTACATAAATATTTTAAAAT [XGTACX_site4980] | 10.3 ± 0.4
25 | AAAAAAAAAAAAAACTGTACCAAAAAGAATATATAC [XGTACX_site8345] | 8.79 ± 0.54
26 | TTGTTTCTACAATTTAATAAAATACGTTTTCAAAAA [XGTACX_negctrl_site377] | 8.15 ± 0.52
27 | TACTCCTTAAATATATGTAAAGGAAGAAAAAAAAAA [XGTACX_negctrl_site306] | 8.54 ± 0.53
28 | ACAATAAAAATAAAAAGTACAAATAAAAAAAATAAA [XGTACX_site6718] | 8.73 ± 0.4
29 | AATATATGTTTAATTTCACACACAAATATACATTTT [CACACA_site9385] | 8.56 ± 0.35
30 | ATATATATATATATATGTACACATATACGCTTTTTC [XGTACX_site3838] | 10.3 ± 0.28
31 | ATATGTCACTTGTATACACACATATATATTTCAATC [CACACA_site3256] | 9.32 ± 0.54
32 | TTACTTATAAATAAATATACAAAAATGTTATATATA [XGTACX_negctrl_site223] | 7.96 ± 0.45
33 | CTGAAAAAAAAGCTTGCACACGTATTTGCTTTATGT [CACACA_site8427] | 8.47 ± 0.46
34 | TTTTTTGTGTTTGGTACACACGTTATAAAAAATAAA [CACACA_site4866] | 8.45 ± 0.37
35 | TTTTTTTTTTTTGAAGTGCATTACTTTTTTTGTATT [GTGCAC_site9811] | 8.5 ± 0.23
36 | AGGAATATAAAGTGCACACATAATTTGGGGGCAAAA [CACACA_site258] | 9.59 ± 0.23
37 | GAAAATAGCTAAAATACACACAATTAAAAATTATTA [CACACA_site3506] | 8.3 ± 0.31
38 | TTGTAAAACTTATAATGTACATTTTTTTTTTTTTTT [XGTACX_site5398] | 8.43 ± 0.28
39 | AGGGACATCTATATCACACACAAAAATTAGTCCCTT [CACACA_site7330] | 8.63 ± 0.46
40 | TTTTTTTTTTTTTGCACACACATTGAATTATTATTC [CACACA_site197] | 8.62 ± 0.34
41 | TATATAGAGAGATATGCACACTGTATGAATGCCCCC [CACACA_site5476] | 10.3 ± 0.38
42 | TATACCTATATACATACATGCAAATATATATTCATA [TGCATGCA_site269] | 8.77 ± 0.17
43 | ATAAGAAAATATAAAATGCACACTATAAATTGTATA [CACACA_site143] | 8.52 ± 0.35
44 | TTTAAAAATAAAAGTACACACATAAACATATTACAC [CACACA_site1428] | 8.88 ± 0.36
